Laboratory results published in PMC6919601, “Identification of Plasmodium dipeptidyl aminopeptidase allosteric inhibitors by high throughput screening” (PLoS ONE, 2019).
The campaign covered roughly 110,000 compounds. About 230 (0.21%) showed an effect of 50% or more. The list shows a part of the results.

Molecular target: DPAP1 (Plasmodium falciparum, UniProt Q8IIJ9)
Assay: primary screen, percent inhibition; read by cleavage of a fluorogenic dipeptide substrate; higher = more effect of the substance
Set-up: species or system P. falciparum D10 trophozoite lysates; single well
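Also: 30 min substrate incubation versus DMSO and 10 µM JCP410 controls.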

Chain of DPAP1 (Q8IIJ9 whole entry, looked up): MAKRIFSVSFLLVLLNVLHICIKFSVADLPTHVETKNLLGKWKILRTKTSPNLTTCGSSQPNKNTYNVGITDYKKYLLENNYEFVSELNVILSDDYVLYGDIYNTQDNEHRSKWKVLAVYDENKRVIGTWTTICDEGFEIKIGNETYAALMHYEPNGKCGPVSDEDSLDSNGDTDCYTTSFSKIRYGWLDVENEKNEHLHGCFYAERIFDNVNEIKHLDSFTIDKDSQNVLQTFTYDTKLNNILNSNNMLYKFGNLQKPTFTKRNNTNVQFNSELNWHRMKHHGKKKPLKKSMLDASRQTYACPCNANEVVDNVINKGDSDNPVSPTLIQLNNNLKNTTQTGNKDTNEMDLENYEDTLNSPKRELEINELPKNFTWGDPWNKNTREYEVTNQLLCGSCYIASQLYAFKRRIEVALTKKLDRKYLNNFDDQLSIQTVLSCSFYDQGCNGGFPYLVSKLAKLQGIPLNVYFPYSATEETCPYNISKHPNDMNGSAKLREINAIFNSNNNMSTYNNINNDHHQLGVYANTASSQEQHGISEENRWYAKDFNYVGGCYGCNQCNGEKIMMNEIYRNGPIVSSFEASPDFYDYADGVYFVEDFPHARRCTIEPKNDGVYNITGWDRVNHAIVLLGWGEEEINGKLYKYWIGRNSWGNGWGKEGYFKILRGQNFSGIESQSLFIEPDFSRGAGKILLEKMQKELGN

| SMILES | % Inhibition @ 10 uM [%] |
| --- | --- |
| CN1C(=O)C(=Cc2c[nH]c3ccccc23)C(=O)N(C)C1=S | -4.23 |
| CCC(C)NC(=O)C1c2cc(OC)c(OC)cc2C(=O)N(C)C1c1cccs1 (stereo not drawn) | -1.31 |
| COc1ccccc1NC(=O)c1ccc2c(c1)C(=O)N(Cc1ccco1)C2=O | 4.64 |
| Clc1ccc(N2CCN(C/C(Br)=C/c3ccccc3)CC2)cc1 | -4.95 |
| CCCCOC(=O)c1[nH]ncc1[N+](=O)[O-] | -4.08 |
| CC(C)c1cc(C(N)=O)c(NC(=O)Cc2c(Cl)cccc2Cl)s1 | -3.92 |
| CCNc1nc(OC(C(F)(F)F)C(F)(F)F)nc(N(c2ccccc2)c2ccccc2)n1 | -2.74 |
| O=C(Nc1cccnc1)C1OCCc2ccccc21 (stereo not drawn) | -7.86 |
| CC(C)(C)c1ccc(C(=O)NCc2nnc(S)n2-c2ccccc2)cc1 | 3.06 |
| COc1ccc(C(=O)/C=C/c2cccs2)cc1 | 3.85 |
| NS(=O)(=O)c1ccc(CCNC(=O)c2csc3c2CCCC3)cc1 | 1.93 |
| Cc1nc2nc(-c3cccnc3)nn2c(C)c1Cl | 2.42 |
| CCOc1ccc(C(=O)n2cnc3cc(C)c(C)cc32)cc1 | 5.23 |
| COc1ccc2[nH]cc(CCNC(=O)NC3CCCCC3)c2c1 | -4.07 |
| COc1ccc(C2Nn3c(nnc3-c3ccccc3)SC2C(=O)N2CCCCC2)cc1Cl (stereo not drawn) | 0.0289 |
| NC(=O)c1ccccc1NC(=O)COc1c(F)c(F)cc(F)c1F | -4.41 |
| N#C/C(=C(/O)c1cccc(F)c1)c1nc2ccccc2s1 | 4.3 |
| CC1CCc2c(sc3ncnc(SC(C)C(=O)O)c23)C1 (stereo not drawn) | 4.18 |
| CC1CC(C)CN(c2nc3c(c(=O)n(C)c(=O)n3C)n2Cc2ccccc2Cl)C1 (stereo not drawn) | -2.36 |
| OCC/N=C1\CCc2c1[nH]c1ccc(C3CCCCC3)cc21 | 1.26 |
| C1=CC2(CCN(Cc3cccnc3)CC2)c2ccccc21 | 4.9 |
| CC(C)NS(=O)(=O)c1ccc(CCC(=O)NCc2ccncc2)cc1 | -4.15 |

| SMILES | % Inhibition @ 10 uM [%] |
| --- | --- |
| CCc1ccc(-c2cc(C(F)(F)F)n3nc(C(=O)N(C)Cc4cnn(C)c4)cc3n2)s1 | -1.36 |
| CCN(CC)C(=O)COc1ccc(C2C(C#N)=C(N)Oc3[nH]nc(-c4ccc(C)cc4)c32)cc1OC (stereo not drawn) | 4.99 |
| Cn1nc(C(=O)NC2CCN(Cc3ccccc3)CC2)c2c1-c1ccccc1S(=O)(=O)C2 | 1.23 |
| O=C1OC(c2cccc3ccccc23)=N/C1=C/c1cc(Br)cs1 | -0.0785 |
| Cc1cc(C)nc(SCC(=O)NC(C)c2ccccc2)n1 (stereo not drawn) | 10.9 |
| C/N=C1\S/C(=C/c2ccc(OC)c(Cl)c2)C(=O)N1C | 4.37 |
| O=c1c(N2CCCC2)c(Cl)cnn1-c1ccccc1 | 1.83 |
| CC(NC=C1C(=O)NC(=O)NC1=O)c1ccccc1 (stereo not drawn) | 1.4 |
| COc1ccc(-c2noc(CNC(=O)COc3ccc(Cl)cc3C)n2)cc1 | 0.486 |
| CCS(=O)(=O)C1=NSC2=NC(=O)/C(=C\c3ccc(OC)cc3)C(=N)N21 | -3.39 |
| Cc1cc(OCC(=O)N(Cc2cccs2)C2CCS(=O)(=O)C2)ccc1Cl (stereo not drawn) | 0.413 |
| COc1ccc2c(c1)nc(O)c1sc3ccccc3c12 | 0.163 |
| CCc1ccc(-c2cn3c(n2)sc2cc(C(=O)OC)ccc23)cc1 | 0.0882 |
| CC(=O)Nc1ccc(NC(=O)CN(c2ccc(F)cc2)S(=O)(=O)c2ccc(C)cc2)cc1 | -7.58 |
| COc1cccc(C2C(C(=O)Nc3ccccc3C)=C(C)Nc3nc(CCCO)nn32)c1 (stereo not drawn) | -3.04 |
| CC(C)(C)c1ccc(C(=O)N2CCN(c3nc4ccccc4s3)CC2)cc1 | -2.39 |
| COCCCNC(=O)c1noc2c1COc1ccc(C)cc1-2 | 5.1 |
| CCN(Cc1ccccc1)C(=O)Cc1ccccc1 | 1.91 |
| N#CCCS(=O)(=O)c1ccc(Cl)c(Cl)c1 | 6.33 |
| NC(=O)C1CCN(C(=O)CCNS(=O)(=O)c2cc(Br)cnc2N)CC1 | 3.09 |
| Cc1cc(C)c(C#N)c(SC/C=C/c2ccccc2)n1 | 1.35 |
| OCC1CCCN1Cc1c(F)cccc1Cl (stereo not drawn) | -0.603 |

| SMILES | % Inhibition @ 10 uM [%] |
| --- | --- |
| CCOc1ccc(OCc2ccc(C(=O)N3CCc4ccccc4C3)cc2)cc1 | 3.72 |
| Clc1ccc(CN2CCOCC2)cc1Cl | -0.603 |
| Nc1nonc1C(=O)NCCNCc1ccccc1 | 4.96 |
| Cn1cc(Br)c(C(=O)N2CCc3ccccc3C2)n1 | 3.65 |
| Cc1ccc2oc(=O)c3cnn(CC(=O)NCc4ccc(C)o4)c3c2c1 | -3.45 |
| Cc1ccc(CNC(=O)CCCC(=O)O)cc1 | -4.6 |
| COC(=O)c1c(NC(=O)COc2ccc(C)c(C)c2)sc2c1CCCC2 | 11.8 |
| Cc1nc2ccn(Cc3cccs3)c(=O)c2cc1C(=O)N1CCN(c2ncccn2)CC1 | -3.79 |
| CCCn1c(C)c(C(=O)OCC)c2cc(O)ccc21 | -8.67 |
| O=C1c2ccc(Br)cc2C(=O)N1Cc1ccc2c(c1)OCO2 | -0.105 |
| CCCCOC(=O)Cc1c(O)nc2ccccc2c1O | -0.712 |
| COc1cccc(NC(=O)c2cc3c(C)nn(-c4ccccc4)c3s2)c1 | 1.34 |
| CCOC(=O)c1c(Cl)cc(C)nc1Cl | 0.503 |
| Fc1ccc(CCNC2CCN(Cc3ccccc3)CC2)cc1 | 0.565 |
| O=C1CSC(=O)N1CC(O)Cn1c2ccc(Cl)cc2c2cc(Cl)ccc21 (stereo not drawn) | -2.87 |
| COc1cccc2cc(NC(=O)/C=C/c3cccc(Cl)c3Cl)c(=O)oc12 | 10.4 |
| Cc1ccc(-c2nnc(SCc3ccccc3)o2)cc1 | 1.46 |
| COC(=O)c1cc(S(=O)(=O)N(C)CC2COc3ccccc3O2)cn1C (stereo not drawn) | 1.93 |
| CCOc1ccccc1NC(=O)c1cccc(C)c1 | 1.38 |
| CS(=O)(=O)N(CC(=O)Nc1ccc2c(c1)OCO2)c1ccccc1Br | -2.92 |
| COc1ccc(CCNC2=Nc3ccccc3CCC2)cc1OC | -2.78 |
| CCCCN(C)C(=O)Cn1nc(C)c2c(C)n(-c3ccccc3)nc2c1=O | -1.39 |
